Measurements published in article PMC270013 (BMC Biochemistry, 2003).

Legend:
[1] = target: the molecule itself; assay: breakpoint of thermal midpoint
cross-linking = target: the molecule itself; assay: cross-linking

B1: Val100Gly cpn10 (human mitochondrial cpn10 with valine-100 replaced by glycine) (natural protein)
chain: not shown
- Kd [1]: ~5 µM
- stoichiometry N (cross-linking): 7
